# Data: the supplement of paper PMC11417369
# The list shows a part of the results.
# Tested on: PF3D7_0420300 AP2 domain 1 (GST-tagged)
# Assay: gcPBM binding intensity (ln(normalized median fluorescence intensity)); higher = stronger DNA binding
# Procedure, shortened: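 GST-tagged P. falciparum DNA-binding domains, expressed in E. coli (about 25 μg on average), were applied for 1 h to an Agilent 4 × 180k array of primer-extended double-stranded 36-bp intergenic genomic probes plus negative controls. The binding buffer was 1× PBS with 1% milk, 0.2 mg/ml BSA, 0.5% salmon testes DNA and 0.03% Triton X-100. Bound protein was detected with Alexa488 anti-GST antibody and scanned at 488 nm. Binding intensity is the highest Masliner-normalised natural-log median intensity across replicate spots of either probe orientation.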
row,Sequence,gcPBM binding intensity (ln)
1,ACTACAAGGCAATACAGTACATATAAATGTCATAAT [XGTACX_site8468],9.4
2,TACCTTTTATTAATGTGTACCTAAAATATAATACTT [XGTACX_site192],9.42
3,AAAAAGGTTATTGGTACACACATATGTATTTATATA [CACACA_site4464],9.57
4,TTTAAAAATTTGATCAAACACACGTTGCATAAATTA [CACACA_site3945],9.11
5,AAAACAAAAATATAAACACACATACATTGGTTTTCT [CACACA_site5405],9.71
6,TCTATATAATACCAATGTACATAGTTTTAAGCATAA [XGTACX_site1889],9.07
7,AGGATATGCAGACACACACACATATAGATTTATATA [CACACA_site7100],9.73
8,ATAATATAAACATACACACACACATATATATATATA [CACACA_site5591],10
9,ATAAATTGTAAAATGTGTACGCAGATATTGCGTATT [XGTACX_site332],9.3
10,TTTTGTCTTCAAATCAAATGTATATAAAAAAAATAC [CACACA_negctrl_site1717],8.92
11,AATAGTGTATAAATTTGTACATATAATTAAAAGGAA [XGTACX_site1143],9.36
12,AACTTGTGTGGATATTGTACTAACAATATGTATGAT [XGTACX_site6302],9.13
13,AATAACTTTTTGAGATGTACATTTTTAATTCGTAGA [XGTACX_site8455],8.9
14,TTATTCGAACAAAGGAAAAAATATATTCAAAGGAAA [TGCATGCA_negctrl_site215],9.17
15,ATTCATAAAAAGAGGTGTACATTAATATAATATATA [XGTACX_site8283],9.29
16,GGATTTATTTTATATACACACATACCTATATTTATA [CACACA_site7084],9.58
17,ACTTTAATAATTCACTTATTTTCTTATTATATTATT [CACACA_negctrl_site556],9.61
18,TTTTTAACTAACATATCAATTCCATACGTCGTCAAA [CACACA_negctrl_site560],8.82
19,TAAAATATTGTTATTACATGCAACCTTATGAAAAAT [TGCATGCA_site706],9.17
20,ATATAAAATAATAAGGGTACAGGTCTCTGCGATGTT [XGTACX_site786],9.55
21,AGAATTTTAGATTTAGCACACATTTTTTTTTTTTTT [CACACA_site4081],9.21
22,ACTCGCATATTTAAATGTACTTAATTAGAAGAAAAA [XGTACX_site3304],8.88

row,Sequence,gcPBM binding intensity (ln)
1,AAAATTAAAATAGTAATACACACTTCATAGGAAATG [CACACA_site1762],9.47
2,AACAAGAAATAATCACGTACACATTATAATAACTAA [XGTACX_site8184],9.49
3,CTTTAATATTTTATTTCACACACATAAATGCCCCAA [CACACA_site8569],9.56
4,AAAAAAAAAGATCACACACACATAAATATAAACAAA [CACACA_site5285],10.2
5,TGATATTATTATAAGGTGCTTAAAAATAAAGATAAT [GTGCAC_site9539],9.11
6,AAAAAAAAAAAAAAAAAAAAAAAAAAAAGTTAAAAA [TGCATGCA_negctrl_site74],9.05
7,AGTAATAGTTTGTGCACACTCAAGTATATCATAGAT [CACACA_site6082],9.54
8,ATTTTTGTAAATACATGTACATATATATGCATATCC [XGTACX_site6353],9.49
9,TTTCGCTTTATTTATGCATGCAAATAAGTTGATATT [TGCATGCA_site724],9.24
10,TACATATATACATACACACACATATAACCAATGTAG [CACACA_site2192],10
11,AAGAAAAATATTCGTGTGCACAGAAGTATATGTGTG [GTGCAC_site9814],9.64
12,TATTGTAAGAAAGGCACACAGATAAAATTATTATAT [CACACA_site2921],9.48
13,ATCATCTTTATTCAAGTGCACTGAAAATTTTTTATA [GTGCAC_site9801],9.22
14,ATATAAGTGTATCTAACACACAAATATATAAAAATG [CACACA_site1956],9.55
15,ATAATTATATGGCTAGCACACAATAAATAATTATAT [CACACA_site3815],9.29
16,ACAAGTTAAAATATTACACACATATAAATATTTATA [CACACA_site7467],9.47
17,ATATAAATAAAAAAAAAAAAAAAAAAAAAAAAAAAA [CACACA_negctrl_site972],8.55
18,TATGCTACATTATATGTACACACATATACATATATA [CACACA_site8199],9.49
19,ATTTATACGTAATATGCATAAATATAAATATATATA [XGTACX_negctrl_site133],9.04
20,TTAAAATTTTAAAAATTTTAATTTTACAAAAAAAAT [TGCATGCA_negctrl_site227],8.69
21,TTTCTTTCTTTCTTTTTTTAAATATTTTTTAAAAAT [TGCATGCA_negctrl_site206],8.99
22,AAATTAATGAAATATACACACATATATAAATATATA [CACACA_site4378],9.56

row,Sequence,gcPBM binding intensity (ln)
1,AAATTTTTTAATTTTTCTCATTTAATTTAAAAATTA [GTGCAC_negctrl_site155],8.88
2,AAATTAAAGATAAAAGTGCAAAATTATAAATTTATT,9.34
3,ATAAGCATCTGGATATGTACTTATTCCTTTAAAGAT [XGTACX_site6225],9.06
4,AAAAGTATATATTCAGTGCATAGTCTTTAAATATAA [GTGCAC_site9522],9.19
5,TATATATAACATTGTACACACAAAGAAATAATATTA [CACACA_site3035],9.66
6,ATAAAAAAGCAACATCATATGTTTTTATAGAGTATT [CACACA_negctrl_site745],9.18
7,TATTAAAAATATTATGTACACACATTTTAGATATTT [CACACA_site8549],9.34
8,TAATAAGTACCTTTTGCATGTGGCACGCTTTTTTTT [TGCATGCA_site573],9.37
9,TATTATATAACAAAAAGTACTTATAAGAAATATATA [XGTACX_site5467],9.16
10,AAATGAATTATATAATATATATAAATAAATAAATAA [CACACA_negctrl_site359],9.16
11,CTAAATATATAAAAAAGTACAAAATAAATAATAATT [XGTACX_site2442],9.63
12,TATATATTATGACCACCACACACCTATACACATAAC [CACACA_site8773],9.76
13,TATTTCTGATTATTTTGTACACATTATATATAATGC [XGTACX_site6990],9.25
14,AATATAAACAGACACACACACATATAGATTTATATT [CACACA_site7382],10.1
15,GGATAGATAATAGGGGGTACAAATATACATACATAT [XGTACX_site5089],9.69
16,GAAAATAGAAAAAGCACACATATATTTTGGAATGTA [CACACA_site551],9.54
17,TTTTAATGAAAACACACACACACATATATATATATA [CACACA_site5295],9.92
18,TTATACATTTGTAAATAAATAGAACTGTATTTTTTT [TGCATGCA_negctrl_site397],8.95
19,TATATACCGATATATACACACAAATACATAAGCTTC [CACACA_site6760],9.78
20,CAAAATATTTTTATAACACACATATTTATAACGTGC [CACACA_site6659],9.41
21,TTTTGATTGTTATTCGTATATTATTTTATGATTATA [CACACA_negctrl_site1593],9.48
22,AATAATCATTTTCATAGTACGTATGATTAGAAAAAA [XGTACX_site2589],8.88

row,Sequence,gcPBM binding intensity (ln)
1,ATATTTCATCTAGCTACACACATATAATAAATTATT [CACACA_site4094],9.53
2,TTTTCAATATATAGAGCATGCGCATCCACAAATATG [TGCATGCA_site380],8.93
3,TGCCAATTTTTAAAAACATGCATTATATAGAATAAA [TGCATGCA_site872],8.89
4,AATGGAAAATTATTAACACACACATATAAATATATA [CACACA_site7899],9.88
5,ATTAAAAGGGGGTTTACATGTGTGTGTGTAATATGG [TGCATGCA_negctrl_site293],10.2
6,TACAACAATTTTTGCACACACCAAAACATAAAATAA [CACACA_site4964],9.73
7,TATAAAACCCTACTGTTTCTTCTTTATTGATATATT [TGCATGCA_negctrl_site285],9.44
8,AAAGTTTTTATACATACACACCTATAAATTAAGTGC [CACACA_site7198],9.38
9,GAAAGAATAAAATAAACATGCAAATAAAACATAAAA [TGCATGCA_site471],9.75
10,AATTGTAAATTGGGCACTTATAAAAATGAACAAATA [CACACA_negctrl_site1583],9.28
11,TCATAAAGAACAAAGTGTACCTATATATTACATACA [XGTACX_site7595],9.21
12,TAAATACACTGTAGCGCACACGGCCAAAAAAAAAAA [CACACA_site1818],9.41
13,TACTATCTATACAATACACACAAAAAAAAAAAAATA [CACACA_site3981],9.69
14,TTATTATCCTATATTTCTTTTCCTTCTTCAAAATTA [CACACA_negctrl_site1314],9.24
15,TAATATCATTTATATTGTACTATAACAAAATCTATA [XGTACX_site7700],9.01
16,TATGTCAATTTTCATACATGCGCATAATCTTTATTT [TGCATGCA_site807],9.41
17,ATAAATAAGATACGTACACACATATACAAAATATAC [CACACA_site3661],9.95
18,TTTCCATTATGATATAGTACATAAATATATGTAATA [XGTACX_site6992],9.02
19,TTGTGTGTATGTATACATATATATATTGAGACGAAT [TGCATGCA_negctrl_site382],9.64
20,AAAAAAAATATATAAACACACATATTTATATACTCA [CACACA_site4984],9.43
21,ACATATAATAAAAAATGTACACACATAAGAAAATTT [XGTACX_site6153],9.81
